This assay deals with T1, HIF-1α (UniProt Q16665 1-826, limits assumed).
T1 construct: Endogenous protein in fixed cells, detected with mouse anti-HIF-1α (Abcam)
Nature of the assay: in situ prox-HCR on fixed DLD1 cells treated with CoCl2, two primary antibodies plus anti-mouse and anti-rabbit proximity probes.

One molecule from patent publication US20170009278A1 (NAVINCI DIAGNOSTICS, published 2017) can be followed below.

B1: HIF-1b/ARNT (other, UniProt P27540 2-789, looked up)
chain: AATTANPEMTSDVPSLGPAIASGNSGPGIQGGGAIVQRAIKRRPGLDFDDDGEGNSKFLRCDDDQMSNDKERFARSDDEQSSADKERLARENHSEIERRRRNKMTAYITELSDMVPTCSALARKPDKLTILRMAVSHMKSLRGTGNTSTDGSYKPSFLTDQELKHLILEAADGFLFIVSCETGRVVYVSDSVTPVLNQPQSEWFGSTLYDQVHPDDVDKLREQLSTSENALTGRILDLKTGTVKKEGQQSSMRMCMGSRRSFICRMRCGSSSVDPVSVNRLSFVRNRCRNGLGSVKDGEPHFVVVHCTGYIKAWPPAGVSLPDDDPEAGQGSKFCLVAIGRLQVTSSPNCTDMSNVCQPTEFISRHNIEGIFTFVDHRCVATVGYQPQELLGKNIVEFCHPEDQQLLRDSFQQVVKLKGQVLSVMFRFRSKNQEWLWMRTSSFTFQNPYSDEIEYIICTNTNVKNSSQEPRPTLSNTIQRPQLGPTANLPLEMGSGQLAPRQQQQQTELDMVPGRDGLASYNHSQVVQPVTTTGPEHSKPLEKSDGLFAQDRDPRFSEIYHNINADQSKGISSSTVPATQQLFSQGNTFPPTPRPAENFRNSGLAPPVTIVQPSASAGQMLAQISRHSNPTQGATPTWTPTTRSGFSAQQVATQATAKTRTSQFGVGSFQTPSSFSSMSLPGAPTASPGAAAYPSLTNRGSNFAPETGQTAGQFQTRTAEGVGVWPQWQGQQPHHRSSSSEQHVQQPPAQQPGQPEVFQEMLSMLGDQSNSYNNEEFPDLTMFPPFSE
notes: Endogenous protein in fixed cells, detected with rabbit anti-HIF-1b (Santa Cruz)
Consider B1, for which the binding result is reported as “binds”.
